Data from the CheMixHub viscosity set.
± gives the uncertainty stated by the source. Not every entry of the source has a single result; some have several. This list holds those alone. The source may hold further records. The records of an entry are repeats (runs, samples, wells, individuals or studies). A tag in brackets gives the origin of a value. A, B and so on number the origins entry by entry. Additions like (4×) count equal records among those shown.

Structure (SMILES): COCCOCCOC
- viscosity (298.15 K, 101.33 kPa): 0.973 ± 0.013 mPa·s [study A] and 0.973 ± 0.013 mPa·s [study B] and 0.991 ± 0.025 mPa·s [study C] and 0.992 ± 0.025 mPa·s, 0.992 ± 0.013 mPa·s [study D] and 0.973 ± 0.012 mPa·s [study E] and 0.991 ± 0.013 mPa·s, 0.991 ± 0.007 mPa·s [study F] and 0.99 ± 0.012 mPa·s [study G]
- viscosity (308.15 K, 101.33 kPa): 0.839 ± 0.012 mPa·s [study A] and 0.839 ± 0.012 mPa·s [study B] and 0.842 ± 0.021 mPa·s [study C] and 0.845 ± 0.022 mPa·s, 0.845 ± 0.011 mPa·s [study D] and 0.839 ± 0.011 mPa·s [study E] and 0.842 ± 0.011 mPa·s, 0.842 ± 0.006 mPa·s [study F] and 0.839 ± 0.011 mPa·s, 0.829 ± 0.011 mPa·s [study G]
- viscosity (313.15 K, 101.33 kPa): 0.781 ± 0.011 mPa·s [study A] and 0.781 ± 0.011 mPa·s [study B] and 0.786 ± 0.02 mPa·s [study C] and 0.781 ± 0.01 mPa·s [study D] and 0.786 ± 0.006 mPa·s [study E]

Structure (SMILES): COC(=O)OC
- viscosity (298.15 K, 101.3 kPa): 0.588 ± 0.013 mPa·s [study A] and 0.629 ± 0.006 mPa·s [study B] and 0.589 ± 0.008 mPa·s [study C] and 0.56 ± 0.12 mPa·s [study D]
- viscosity (298.15 K, 101.33 kPa): 0.534 ± 0.016 mPa·s [study A] and 0.589 ± 0.006 mPa·s [study B] and 0.589 ± 0.008 mPa·s [study C] and 0.589 ± 0.01 mPa·s [study D] and 0.589 ± 0.008 mPa·s [study E]

Structure (SMILES): CCCO
- viscosity (293.15 K, 101 kPa): 2.147 ± 0.013 mPa·s [study A] and 2.18 ± 0.07 mPa·s [study B] and 2.102 ± 0.039 mPa·s [study C] and 2.152 ± 0.013 mPa·s [study D]
- viscosity (303.15 K, 101.33 kPa): 1.818 ± 0.018 mPa·s [study A] and 1.546 ± 0.037 mPa·s [study B] and 1.784 ± 0.011 mPa·s [study C] and 1.784 ± 0.014 mPa·s [study D] and 1.784 ± 0.021 mPa·s [study E]
- viscosity (313.15 K, 101 kPa): 1.416 ± 0.03 mPa·s [study A] and 1.32 ± 0.062 mPa·s [study B] and 1.418 ± 0.014 mPa·s [study C] and 1.313 ± 0.0085 mPa·s [study D]
- viscosity (318.15 K, 101 kPa): 1.273 ± 0.027 mPa·s [study A] and 1.273 ± 0.013 mPa·s [study B] and 1.174 ± 0.015 mPa·s [study C] and 1.185 ± 0.0078 mPa·s [study D]

Structure (SMILES): CO
- viscosity (298.15 K, 101 kPa): 0.7 ± 0.03 mPa·s [study A] and 0.542 ± 0.005 mPa·s [study B] and 0.533 ± 0.006 mPa·s [study C] and 0.554 ± 0.0056 mPa·s [study D] and 0.5417 ± 0.005 mPa·s [study E] and 0.5418 ± 0.054 mPa·s [study F]
- viscosity (303.15 K, 101 kPa): 0.533 ± 0.044 mPa·s [study A] and 0.521 ± 0.011 mPa·s [study B] and 0.66 ± 0.03 mPa·s [study C] and 0.47 ± 0.005 mPa·s [study D] and 0.545 ± 0.011 mPa·s [study E]
- viscosity (308.15 K, 101 kPa): 0.411 ± 0.005 mPa·s, 0.4745 ± 0.0051 mPa·s, 0.464 ± 0.0046 mPa·s, 0.4717 ± 0.0045 mPa·s (2×), 0.495 ± 0.052 mPa·s, 0.47 ± 0.01 mPa·s, 0.477 ± 0.012 mPa·s, 0.4741 ± 0.048 mPa·s, 0.4833 ± 0.0044 mPa·s, 0.4774 ± 0.004 mPa·s, 0.491 ± 0.01 mPa·s, 0.61 ± 0.03 mPa·s [several studies]
- viscosity (313.15 K, 101 kPa): 0.453 ± 0.01 mPa·s, 0.453 ± 0.013 mPa·s, 0.43 ± 0.01 mPa·s, 0.457 ± 0.004 mPa·s, 0.514 ± 0.044 mPa·s, 0.465 ± 0.01 mPa·s, 0.443 ± 0.089 mPa·s, 0.455 ± 0.007 mPa·s, 0.442 ± 0.044 mPa·s, 0.57 ± 0.02 mPa·s, 0.4539 ± 0.012 mPa·s [several studies]
